# Measured values: publication PMC12040169 (PLOS Biology, 2025)
# This is one part of the list.
# Tested on: T1, C. trachomatis L2/434/Bu expressing GFP (CTL2-GFP)
# T1 construct: L2/434/Bu GFP intracellular growth in HeLa cells
# Set-up: species or system HeLa; C. trachomatis total inclusion area by high-content imaging, normalised to DMSO
# Settings: total inclusion area; 28.5 h, 10 µM; inhibitor
# In short: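 High-content imaging followed the bulk GFP/resorufin measurement: fixed, Hoechst-stained cells were scored for GFP inclusions and host nuclei per well. Total inclusion area and count served as growth proxies, nuclei number as the viability proxy. MIC calculation matched the bulk assay.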
row,SMILES,% of control remaining
1,CCNc1cc(-c2ccc(Cl)cc2)ncn1 [CBK090880],114.553
2,COCCNc1nc(-c2ccccc2OC)ccc1C(=O)NCCNC(C)=O [CBK105974],101.604
3,Cc1csc2c(N3CCCC3CC(=O)c3cnn(C)c3)ncnc12 (stereo not shown) [CBK304429],58.4382
4,Cn1nccc1NS(=O)(=O)c1cc(C(=O)O)c(Cl)cc1F [CBK062712],82.7654
5,Cc1cccn2cc(CNC(=O)C(C)(C)C)nc12 [CBK304348],80.4376
6,O=C1CC(=O)N(Cc2ccc(F)cc2)C(=O)N1 [CBK291156],127.955
7,COC(=O)C1=C(C(=O)OC)SC(=C2C(=S)C(C)(C)N(C(=O)c3ccc4ccccc4c3)c3cc(C)ccc32)S1 [CBK261622],91.3385
8,COC(=O)COc1ccc(C2Nc3c(Cl)ccc(C(=O)O)c3C3C=CCC32)cc1 (stereo not shown) [CBK268961],92.4281
9,COC(=O)c1ccc(S(=O)(=O)C(F)(F)F)cc1N [CBK018172],65.2845
10,CCN(CC)C(=O)c1[nH]c2ccccc2c1NS(=O)(=O)c1cc(Br)ccc1OC [CBK050113],111.272
11,O=C(CCCN1C(=O)c2ccccc2C1=O)Oc1ccc(-c2ccccc2)cc1 [CBK267144],115.949
12,CCC(NC(=O)Nc1cc(N2CCOCC2)ccc1Cl)c1nc(C)no1 (stereo not shown) [CBK306526],97.4814
13,O=C(COc1ccccc1)N1CCC(c2cccc(Cc3ccccc3F)n2)CC1 [CBK286211],100.77
14,CN(C(=O)C1CCN(S(=O)(=O)c2cn(C)cn2)CC1)C(c1ccc(F)cc1)c1ccccn1 (stereo not shown) [CBK060229],106.668
15,O=C(Nc1cccc2cccnc12)c1ccc(Cl)c(Cl)c1 [CBK261318],97.0852
16,CCN1CCC2(CC1)NC(=O)Cc1cc(OC)c(OC)c(OC)c12 [CBK039868],100.726
17,CN(CCO)C(=O)CCn1c(C(F)F)cc2cccnc21 [CBK282805],89.5163
18,CC(=O)NCC1CN(c2ccc3c(c2)CCN3C(=O)OC(C)(C)C)C(=O)O1 (stereo not shown) [CBK012600],63.6835
19,CCc1cc(Br)ccc1S(=O)(=O)NCCc1cccs1 [CBK045033],77.7038
20,FC(F)(F)c1cccnc1Sc1nc[nH]n1 [CBK115213],89.6404
21,CC(C)S(=O)(=O)n1ccn(-c2ccc(N(C)C)cc2)c1=O [CBK106600],81.4734
22,CC(C)NC(=O)N1CCN2C(=O)c3cc(-c4ccc(Cl)cc4)ccc3NC(=O)[C@H]2C1 [CBK289596],100.121
